Laboratory results from the supplement of paper PMC7826260.
This is one part of the list. One pool of 16,384 single-stranded DNAs met each Rep nickase domain in vitro (1 h at 37 °C, 3 µM enzyme); the outer parts of the 90-letter strands are left off. A value is the log2 ratio of uncut reads to the pool without enzyme; more negative means more cut, near 0 not cut, and no call is made. The scaling is to total reads; where an enzyme cuts many sequences, the uncut ones exceed 0.

What was measured:
Assay in all cases: uncleaved DNA left, log2 of reads against the no-enzyme library (log2 ratio); higher = less cleavage (more negative = more Rep cleavage of the k-mer); sequences stand for … in CTCGTCCG…ACCGGAGA
[1] = test system: T1, Rep nickase domain of Muscovy duck circovirus
T1 sequence (residues 1-111 of Rep, tag left off): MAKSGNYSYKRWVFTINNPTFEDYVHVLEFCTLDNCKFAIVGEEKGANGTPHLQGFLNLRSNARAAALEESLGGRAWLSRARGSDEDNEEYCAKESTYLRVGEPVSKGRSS
Description: (§1)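 A pool of 90-nt single-stranded DNAs with seven random bases just before the constant AC of the nick site (name = the seven bases) was cut by 3 µM recombinant His6-SUMO-tagged Rep nickase domain (300 nM DNA, 50 mM HEPES pH 8.0, 50 mM NaCl, 1 mM MnCl2, 1 h, 37 °C, three replicates). Uncut DNA was amplified and sequenced.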

[2] = test system: T2, Rep nickase domain of banana bunchy top virus
T2 sequence (residues 1-94 of Rep, tag left off): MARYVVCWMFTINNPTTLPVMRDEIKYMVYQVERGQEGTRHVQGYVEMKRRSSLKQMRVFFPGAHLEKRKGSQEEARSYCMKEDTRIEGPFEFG
Description: as §1

[3] = test system: T3, Rep nickase domain of cabbage leaf curl virus
T3 sequence (residues 1-116 of Rep, tag left off): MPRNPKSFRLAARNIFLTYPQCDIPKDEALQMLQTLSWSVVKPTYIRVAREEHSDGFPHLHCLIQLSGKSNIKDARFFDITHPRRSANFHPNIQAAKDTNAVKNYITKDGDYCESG
Description: as §1

[4] = test system: T4, Rep nickase domain of chickpea chlorotic dwarf virus
T4 sequence (residues 1-124 of Rep, tag left off): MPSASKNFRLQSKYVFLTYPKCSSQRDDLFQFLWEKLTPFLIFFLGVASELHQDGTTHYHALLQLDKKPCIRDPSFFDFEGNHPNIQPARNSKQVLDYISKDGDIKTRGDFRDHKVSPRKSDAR
Description: as §1

[5] = test system: T5, Rep nickase domain of faba bean necrotic yellows virus
T5 sequence (residues 1-98 of Rep, tag left off): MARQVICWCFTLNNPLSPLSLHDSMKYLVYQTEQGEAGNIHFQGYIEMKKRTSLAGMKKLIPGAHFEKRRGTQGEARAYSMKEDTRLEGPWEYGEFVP
Description: as §1

[6] = test system: T6, Rep nickase domain of maize striate mosaic virus
T6 sequence (residues 1-117 of Rep, tag left off): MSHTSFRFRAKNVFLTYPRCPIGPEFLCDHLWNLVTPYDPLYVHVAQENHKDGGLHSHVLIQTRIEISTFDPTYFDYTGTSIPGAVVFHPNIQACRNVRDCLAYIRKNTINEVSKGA
Description: as §1

[7] = test system: T7, Rep nickase domain of porcine circovirus 2
T7 sequence (residues 2-116 of Rep, tag left off): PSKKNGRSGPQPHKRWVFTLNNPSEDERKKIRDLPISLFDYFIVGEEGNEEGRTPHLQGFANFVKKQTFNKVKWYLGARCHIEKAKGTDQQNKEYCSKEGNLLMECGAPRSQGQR
Description: as §1

[8] = test system: T8, Rep nickase domain of tomato golden mosaic virus
T8 sequence (residues 1-124 of Rep, tag left off): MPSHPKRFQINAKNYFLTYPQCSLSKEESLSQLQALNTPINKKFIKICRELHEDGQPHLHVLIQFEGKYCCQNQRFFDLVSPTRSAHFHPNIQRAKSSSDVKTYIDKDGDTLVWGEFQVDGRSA
Description: as §1

[9] = test system: T9, Rep nickase domain of tomato yellow leaf curl virus
T9 sequence (residues 1-136 of Rep, tag left off): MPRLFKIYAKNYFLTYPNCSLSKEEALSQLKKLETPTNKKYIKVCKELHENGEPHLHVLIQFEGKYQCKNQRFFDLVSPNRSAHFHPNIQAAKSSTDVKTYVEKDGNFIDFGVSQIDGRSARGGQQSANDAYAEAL
Description: as §1

[10] = test system: T10, Rep nickase domain of wheat dwarf virus
T10 sequence (residues 1-137 of Rep, tag left off): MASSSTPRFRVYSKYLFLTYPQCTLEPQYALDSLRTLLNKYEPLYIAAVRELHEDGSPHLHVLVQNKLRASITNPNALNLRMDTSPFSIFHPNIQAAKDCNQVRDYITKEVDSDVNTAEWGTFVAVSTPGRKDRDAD
Description: as §1

Sequence	uncleaved DNA left (log2) [1]	uncleaved DNA left (log2) [2]	uncleaved DNA left (log2) [3]	uncleaved DNA left (log2) [4]	uncleaved DNA left (log2) [5]	uncleaved DNA left (log2) [6]	uncleaved DNA left (log2) [7]	uncleaved DNA left (log2) [8]	uncleaved DNA left (log2) [9]	uncleaved DNA left (log2) [10]
CCCACTA	-0.032	-0.0392	0.00175	-1.42	0.049	-0.509	-0.119	-0.0603	0.0737	0.0246
CATGCTA	0.04	-0.0343	-0.322	-1.26	0.12	-1.01	0.0819	0.0682	0.108	0.104
ACCAGTG	0.00887	0.0549	-0.688	0.154	-0.0341	-0.698	0.144	-0.0129	0.0852	-0.0191
CGGGTAG	-0.132	0.128	-0.103	0.00536	0.101	-0.308	0.157	0.0527	0.133	0.00978
GGGCAAC	0.00174	-0.0047	0.865	1.83	-0.0639	2.16	0.0378	0.0102	0.00359	0.15
CCTGGCT	-0.00301	-0.163	-0.354	-0.837	0.0586	-0.842	-0.0107	-0.0828	-0.156	-0.21
ATCAGTC	-0.0231	0.00392	-0.188	-0.19	0.0209	-1.01	0.127	-0.0465	0.0293	-0.0455
TTATTCC	-0.027	-0.129	0.115	-0.293	-0.0732	-0.489	-0.0805	-0.224	-0.0162	-0.0532
CCGAGGG	-0.081	-0.0589	0.152	0.42	-0.0236	0.247	0.098	-0.00568	-0.215	0.0248
ACGTTGT	-0.0016	-0.0597	-0.341	-0.441	-0.0352	-0.796	-0.577	0.0895	-0.0572	-0.0713
TCGGTGT	0.123	-0.067	0.0064	-0.208	-0.116	-0.456	-0.0405	0.0434	-0.0825	-0.0705
CTAACAA	-0.0488	0.0733	-0.434	-1.19	-0.0258	-0.679	0.0632	0.0176	-0.0332	0.00984
CGCACCA	0.0454	-0.0156	0.00557	-0.7	0.000283	-0.246	-0.109	-0.00969	-0.00555	0.0534
CGATTAT	-0.387	0.0184	0.0347	-0.392	-0.0458	-0.253	-0.78	-0.058	-0.097	-0.0203
TCCTAGG	-0.0697	-0.108	0.514	1.42	-0.122	1.69	0.0663	0.0449	-0.0519	-0.0149
AAGGTGG	0.0064	-0.0857	-0.215	0.229	0.0268	-0.389	0.227	0.0397	0.0281	0.0347
CCTCAGG	0.073	0.0107	0.15	1.01	0.219	0.707	0.299	0.209	-0.0992	0.0682
GGGCTCC	0.00562	-0.0649	0.337	1.12	0.0283	1.08	0.12	-0.18	-0.114	0.0249
AGTAAGG	0.144	0.0511	0.224	0.968	0.134	0.801	0.267	0.0866	-0.029	0.101
TACGACG	-0.0549	0.0115	-0.413	-0.585	-0.0375	-0.886	0.0458	-0.0735	-0.00148	0.0776

Sequence	uncleaved DNA left (log2) [1]	uncleaved DNA left (log2) [2]	uncleaved DNA left (log2) [3]	uncleaved DNA left (log2) [4]	uncleaved DNA left (log2) [5]	uncleaved DNA left (log2) [6]	uncleaved DNA left (log2) [7]	uncleaved DNA left (log2) [8]	uncleaved DNA left (log2) [9]	uncleaved DNA left (log2) [10]
CCCATTG	0.123	-0.0237	-0.777	-0.614	-0.0119	-1.31	0.0204	-0.121	-0.0422	-0.0704
CCCGCTA	-0.122	-0.122	-0.232	-0.931	-0.0781	-0.701	0.0849	0.0335	-0.124	-0.125
GTCACAA	0.132	0.156	0.291	1.11	0.055	1.75	0.18	0.14	0.26	0.274
ATGCCGT	0.0277	-0.0679	-0.521	-0.812	0.0366	-1.04	-0.0378	0.0375	-0.0212	-0.133
TGGCCAG	-0.0256	0.00894	-0.213	0.127	-0.0653	-0.451	0.101	-0.0813	-0.011	0.12
GAACAGG	0.0228	-0.0427	0.512	1.21	0.00914	1.31	0.105	-0.00555	-0.0343	0.109
GTCCTGC	0.0421	0.0904	0.288	0.711	-0.113	1.24	0.0741	0.00147	0.0196	0.075
TGAGTAG	0.0732	-0.0237	-0.528	-0.585	0.0297	-1.21	0.233	0.0926	0.0779	0.0275
CCTACGC	0.00994	0.0423	-0.00387	-0.91	-0.0587	-0.658	0.0735	-0.0346	-0.0543	-0.0214
TCGCGCG	0.0238	-0.0328	-0.814	0.381	-0.0106	-0.836	-0.0677	-0.13	-0.0895	-0.131
CATTCAG	0.114	-0.0305	-0.714	-0.064	0.0383	-0.931	0.191	0.0833	0.114	-0.044
AGTTTAG	0.15	-0.0186	-0.71	-0.447	0.0586	-1.25	0.12	0.0562	0.0401	-0.0278
TAATATG	0.15	0.0327	-1.4	-2.32	0.0265	-1.3	0.175	0.141	-0.00239	-0.103
GAGCACA	0.0496	0.0858	0.252	0.341	-0.0839	1.32	-0.276	0.0536	0.0293	0.103
TGCATCG	-0.0353	0.0177	-0.868	-0.389	-0.0217	-1.12	0.206	-0.0843	-0.0448	-0.206
TCCAGTG	0.0885	-0.105	-0.573	-0.777	-0.0148	-1.05	0.0794	-0.0347	0.0253	-0.24
GCAATCT	0.0464	0.0274	-0.233	-1.19	-0.0113	-0.159	-0.135	0.00844	-0.0311	0.0498
TTTTAGG	0.0659	-0.16	0.483	1.37	0.0998	1.8	0.141	0.0691	-0.0938	-0.0214
AGGTGGC	0.0954	-0.00104	0.146	0.178	0.017	-0.476	0.272	0.0817	0.0686	0.0656
TGTGCGC	-0.109	-0.281	-0.88	-0.467	-0.0635	-0.923	-0.129	-0.272	-0.178	-0.338

Sequence	uncleaved DNA left (log2) [1]	uncleaved DNA left (log2) [2]	uncleaved DNA left (log2) [3]	uncleaved DNA left (log2) [4]	uncleaved DNA left (log2) [5]	uncleaved DNA left (log2) [6]	uncleaved DNA left (log2) [7]	uncleaved DNA left (log2) [8]	uncleaved DNA left (log2) [9]	uncleaved DNA left (log2) [10]
GCCCTGG	0.0876	0.145	0.158	0.631	-0.00868	0.144	0.156	0.153	-0.112	0.0151
TGCACTA	-0.0357	0.0426	-0.0351	-0.177	-0.022	0.0631	-0.129	0.0899	0.00156	0.108
CATCTTA	-0.122	0.031	-0.23	-2.05	-0.0554	-0.627	-0.165	-0.0186	0.0132	-0.0821
CCTGCCG	0.0437	-0.00267	-0.817	-0.295	0.00199	-0.949	0.136	0.0349	-0.0809	-0.11
CTGAGGC	-0.0602	-0.0812	-0.0441	0.0921	-0.16	-0.7	0.0241	-0.153	0.0126	0.0465
CCACTGG	-0.112	-0.0851	-0.188	0.0803	-0.104	-0.502	0.0551	-0.045	-0.0656	-0.0104
TGACTCA	0.0878	0.0588	0.258	0.117	0.0275	0.739	0.0758	0.000935	0.0564	0.136
CCGGCTA	-0.109	-0.196	0.112	-0.153	-0.0988	0.2	-0.0703	0.0122	-0.135	-0.0652
AGCTCAT	0.0366	0.0596	0.21	0.151	0.076	0.429	-0.865	-0.0334	0.0676	0.117
GTCGTAT	-0.102	0.00712	0.384	0.886	0.0466	1.65	0.0938	0.0331	0.187	0.118
TTGTTCG	0.0342	-0.106	-0.816	0.0441	0.0901	-1.02	0.196	-0.163	-0.0576	-0.173
TGATCGC	0.0689	-0.0695	-0.353	-0.654	0.0555	-1	0.0854	0.0832	0.00296	-0.0691
GTAATAG	0.0466	-0.0637	-0.398	-0.325	0.0225	-0.898	0.101	-0.0639	-0.00363	-0.0806
AGATGCG	-0.192	-0.0657	-0.302	1.24	0.0584	0.752	0.109	-0.119	-0.174	-0.0531
CAATCAA	-0.082	0.151	0.169	0.513	-0.137	0.15	-0.0428	0.0769	0.14	0.112
TGAGGGG	0.0143	-0.0549	0.286	0.661	0.123	0.574	0.257	-0.0244	-0.0584	0.0429
TAGGTGG	-0.0182	0.0167	0.0141	0.0946	-0.015	-0.363	0.14	0.00978	-0.0269	-0.0119
GGAACTG	0.121	0.198	0.207	1.08	-0.0021	1.8	0.206	0.108	0.0331	0.12
ACGGAAG	0.0401	0.0666	-0.86	-0.322	0.0323	-1.1	0.126	0.0156	-0.0201	-0.188
CAACCGG	-0.111	-0.0271	0.122	0.858	-0.27	0.81	-0.047	-0.00975	-0.155	-0.0278
